Data taken from the antibiotic and cytotoxicity screens of Wong et al. (2023).
The list shows a part of the results.

How the values were obtained:
HSkMC = human skeletal muscle cells; experiment: cytotoxicity call (relative viability < 0.9); conditions: 10 µM
HepG2 = experiment: cytotoxicity call (relative viability < 0.9); conditions: 10 µM
S. aureus RN4220 = experiment: growth inhibition call (relative growth <= 0.2); conditions: 50 µM

C[C@@H]1CN([C@H](C)CO)C(=O)Cc2cc(NC(=O)Cn3cnnn3)ccc2O[C@@H]1CN(C)Cc1ccccc1
cytotoxicity call (HSkMC): inactive | cytotoxicity call (HepG2): inactive | growth inhibition call (S. aureus RN4220): inactive

Cn1cnc(S(=O)(=O)N2C[C@@H](O)COC[C@H]3O[C@H](CC(=O)NCc4cccc(F)c4)CC[C@@H]32)c1
cytotoxicity call (HSkMC): inactive | cytotoxicity call (HepG2): inactive | growth inhibition call (S. aureus RN4220): inactive

COCC(=O)Nc1ccc2c(c1)[C@@H]1C[C@H](CC(=O)N3CCOCC3)O[C@@H](CO)[C@@H]1O2
cytotoxicity call (HSkMC): inactive | cytotoxicity call (HepG2): inactive | growth inhibition call (S. aureus RN4220): inactive

NC1CCN(c2cccc(Cl)n2)CC1
cytotoxicity call (HSkMC): inactive | cytotoxicity call (HepG2): inactive | growth inhibition call (S. aureus RN4220): inactive

Cc1ccc(-c2ncns2)cc1
cytotoxicity call (HSkMC): inactive | cytotoxicity call (HepG2): inactive | growth inhibition call (S. aureus RN4220): inactive

C[C@H](CO)N1C[C@H](C)[C@H](CN(C)C(=O)c2ccccc2)Oc2cc(C#C[C@@H](C)O)ccc2S1(=O)=O
cytotoxicity call (HSkMC): inactive | cytotoxicity call (HepG2): inactive | growth inhibition call (S. aureus RN4220): inactive

C[C@@H]1CN([C@H](C)CO)C(=O)c2cc(NC(=O)Nc3cccc4ccccc34)ccc2O[C@@H](C)CCCCO[C@H]1CN(C)Cc1ccc(C(F)(F)F)cc1
cytotoxicity call (HSkMC): inactive | cytotoxicity call (HepG2): inactive | growth inhibition call (S. aureus RN4220): inactive

C[C@@H]1CN([C@H](C)CO)C(=O)Cc2cc(NS(=O)(=O)c3ccc(Cl)cc3)ccc2O[C@@H]1CN(C)Cc1ccc(-c2ccccc2)cc1
cytotoxicity call (HSkMC): active | cytotoxicity call (HepG2): active | growth inhibition call (S. aureus RN4220): inactive

O=c1cccc2[nH][nH]cc1-2
cytotoxicity call (HSkMC): inactive | cytotoxicity call (HepG2): inactive | growth inhibition call (S. aureus RN4220): inactive

COc1cccc(S(=O)(=O)N2C[C@H](O)COC[C@@H]3O[C@@H](CC(=O)NCCCN4CCOCC4)CC[C@H]32)c1
cytotoxicity call (HSkMC): inactive | cytotoxicity call (HepG2): inactive | growth inhibition call (S. aureus RN4220): inactive

CN(C)CC#Cc1ccc([C@H]2[C@@H](CO)N3C(=O)CN(C(=O)CN(C)C)C[C@@H]23)cc1
cytotoxicity call (HSkMC): inactive | cytotoxicity call (HepG2): inactive | growth inhibition call (S. aureus RN4220): inactive

CN1CCN(C(=O)C[C@@H]2CC[C@@H](NC(=O)Cc3ccccn3)[C@@H](CO)O2)CC1
cytotoxicity call (HSkMC): inactive | cytotoxicity call (HepG2): inactive | growth inhibition call (S. aureus RN4220): inactive

COc1ccc(S(=O)(=O)N(C)C[C@@H]2Oc3c(NC(=O)Nc4cccc5ccccc45)cccc3C(=O)N([C@@H](C)CO)C[C@H]2C)cc1OC
cytotoxicity call (HSkMC): inactive | cytotoxicity call (HepG2): inactive | growth inhibition call (S. aureus RN4220): inactive

C[C@@H]1CN([C@@H](C)CO)C(=O)c2cc(/C=C/c3ccccc3)cnc2O[C@@H]1CN(C)C(=O)CN1CCOCC1
cytotoxicity call (HSkMC): inactive | cytotoxicity call (HepG2): inactive | growth inhibition call (S. aureus RN4220): inactive

CNCCCC1c2ccccc2C=Cc2ccccc21.Cl
cytotoxicity call (HSkMC): inactive | cytotoxicity call (HepG2): active | growth inhibition call (S. aureus RN4220): inactive

C[C@@H]1CCCCO[C@@H](CN(C)C(=O)CCC(F)(F)F)[C@@H](C)CN([C@@H](C)CO)C(=O)c2cc(NC(=O)Nc3ccccc3)ccc2O1
cytotoxicity call (HSkMC): inactive | cytotoxicity call (HepG2): inactive | growth inhibition call (S. aureus RN4220): inactive

C[C@H]1CN([C@@H](C)CO)C(=O)Cc2cc(NC(=O)CCN3CCOCC3)ccc2O[C@@H]1CN(C)Cc1ccc(C(=O)O)cc1
cytotoxicity call (HSkMC): inactive | cytotoxicity call (HepG2): inactive | growth inhibition call (S. aureus RN4220): inactive

CCNC(=O)C[C@@H]1C=C[C@H](NC(=O)C2CC2)[C@H](CO)O1
cytotoxicity call (HSkMC): inactive | cytotoxicity call (HepG2): inactive | growth inhibition call (S. aureus RN4220): inactive

C[C@H](CO)N1C[C@H](C)[C@H](CN(C)Cc2ccc(Cl)c(Cl)c2)Oc2ccc(NC(=O)Nc3ccccc3)cc2CC1=O
cytotoxicity call (HSkMC): active | cytotoxicity call (HepG2): active | growth inhibition call (S. aureus RN4220): inactive

C[C@H](CO)N1C[C@H](C)[C@H](CN(C)C(=O)Nc2ccc(F)cc2)Oc2ccc(NC(=O)Nc3cccc4ccccc34)cc2CC1=O
cytotoxicity call (HSkMC): inactive | cytotoxicity call (HepG2): inactive | growth inhibition call (S. aureus RN4220): inactive

[N-]=[N+]=Nc1ccccc1[C@H]1OC(c2ccc(OCCCO)cc2)=N[C@@]1(Cc1ccccc1)C(=O)NC[C@@H](O)CO
cytotoxicity call (HSkMC): inactive | cytotoxicity call (HepG2): inactive | growth inhibition call (S. aureus RN4220): inactive

C[C@@H]1CN([C@@H](C)CO)C(=O)c2cc(NC(=O)Cc3ccccc3)ccc2O[C@@H](C)CCCCO[C@@H]1CN(C)S(=O)(=O)c1ccc(Cl)cc1
cytotoxicity call (HSkMC): inactive | cytotoxicity call (HepG2): inactive | growth inhibition call (S. aureus RN4220): inactive

COCC(=O)Nc1ccc2c(c1)[C@H]1C[C@@H](CC(=O)N3CCOCC3)O[C@@H](CO)[C@H]1O2
cytotoxicity call (HSkMC): inactive | cytotoxicity call (HepG2): inactive | growth inhibition call (S. aureus RN4220): inactive

O=C(C[C@@H]1CC[C@@H]2[C@H](COC[C@@H](O)CN2S(=O)(=O)c2cccc(F)c2)O1)NCc1ccc2c(c1)OCO2
cytotoxicity call (HSkMC): inactive | cytotoxicity call (HepG2): inactive | growth inhibition call (S. aureus RN4220): inactive

C[C@@H]1CN([C@H](C)CO)C(=O)c2cc(NC(=O)CCC(F)(F)F)ccc2O[C@H]1CN(C)C(=O)Nc1ccc(C(F)(F)F)cc1
cytotoxicity call (HSkMC): inactive | cytotoxicity call (HepG2): inactive | growth inhibition call (S. aureus RN4220): inactive

C[C@H](CO)N1C[C@H](C)[C@H](CN(C)C(=O)Cc2ccccn2)Oc2cc(C#Cc3ccccc3)ccc2S1(=O)=O
cytotoxicity call (HSkMC): inactive | cytotoxicity call (HepG2): inactive | growth inhibition call (S. aureus RN4220): inactive

COCC(=O)N1C[C@@H](C)[C@H](OC)CN(C)C(=O)c2cc(NC(=O)Nc3ccccc3)ccc2OC[C@H]1C
cytotoxicity call (HSkMC): inactive | cytotoxicity call (HepG2): inactive | growth inhibition call (S. aureus RN4220): inactive

O=C(NCc1ccco1)c1nc2ncccn2n1
cytotoxicity call (HSkMC): inactive | cytotoxicity call (HepG2): inactive | growth inhibition call (S. aureus RN4220): inactive
